From the supplement of paper PMC12217912
The list shows a part of the results. The full chains were built here from the parent and the listed change. Values near 0.05 are background.

B1: TEV protease; numbered along this chain (parent)
chain: MGESLFKGPRDYNPISSSICHLTNESDGHTTSLYGIGFGPFIITNKHLFRRNNGTLVVQSLHGVFKVKDTTTLQQHLVDGRDMIIIRMPKDFPPFPQKLKFREPQREERICLVTTNFQTKSMSSMVSDTSCTFPSGDGIFWKHWIQTKDGQCGSPLVSTRDGFIVGIHSASNFTNTNNYFTSVPKNFMELLTNQEAQQWVSGWRLNADSVLWGGHKVFMVKPEEPFQPVKEATQL

Variants of: B1
Assay: raw area under fraction-flipped curve 0-4 h after induction (AUC4h, not background-subtracted), DNA-recorder readout of cleavage of the substrate (dimensionless); higher = more cleavage of the substrate by the protease variant
Conditions: temperature: 34 °C; time window: 0-4 h after rhamnose induction
Experimental: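 In vivo DNA recorder in E. coli TOP10(DE3) ΔrhaA at 34 °C. Each TEVp single-site mutant (parent TEVp 0) is paired with a single-site variant of the 7-mer TEVs (canonical ENLYFQ|S). The substrate sits between flexible linkers in a Bxb1-sfGFP-TEVs-SsrA fusion, so cleavage stabilises Bxb1 and speeds flipping of a recombination array, read by NGS. The value is the raw area under the fraction-flipped curve over 0-4 h after rhamnose induction (AUC4h), with ≥20 reads per time point. It is not background-subtracted; inactive controls average about 0.047.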
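Further: Bxb1 expression induced with 0.2% (w/v) L-rhamnose at OD600 near 0.5, cultures sampled hourly, flipped fraction per protease–substrate barcode pair counted by paired-end Illumina sequencing.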

Row | Variant | area with substrate DNLYFQS | area with substrate GNLYFQS | area with substrate HNLYFQS | area with substrate LNLYFQS | area with substrate MNLYFQS | area with substrate NNLYFQS | area with substrate PNLYFQS | area with substrate SNLYFQS | area with substrate TNLYFQS | area with substrate WNLYFQS | area with substrate YNLYFQS | area with substrate KNLYFQS | area with substrate QNLYFQS | area with substrate RNLYFQS | area with substrate INLYFQS | area with substrate VNLYFQS | area with substrate FNLYFQS
1 | R50Q | 0.094 | 0.0811 | 0.0609 | 0.0743 | 0.0678 | 0.0724 | 0.0779 | 0.0736 | 0.0715 | 0.0684 | 0.0554 | – | – | – | – | – | –
2 | R50V | 0.0843 | – | 0.0658 | – | 0.066 | – | 0.0555 | – | 0.146 | 0.064 | 0.0584 | 0.0777 | 0.0869 | 0.0836 | – | – | –
3 | K66C | 0.0741 | 0.0646 | – | 0.076 | 0.0446 | – | 0.0791 | 0.085 | 0.0298 | 0.0618 | – | 0.091 | – | – | 0.0615 | 0.0654 | –
4 | V78T | 0.0641 | 0.0708 | 0.0317 | – | – | – | 0.0611 | 0.0653 | 0.0592 | 0.0192 | 0.0622 | – | – | – | – | 0.0737 | 0.055
5 | V78K | 0.0626 | 0.0427 | 0.0588 | 0.0498 | – | 0.0515 | 0.0578 | 0.0546 | – | 0.0508 | 0.0421 | 0.049 | 0.0403 | – | 0.0377 | – | –
6 | V78M | 0.0789 | 0.0703 | 0.0599 | – | 0.0632 | 0.0576 | 0.065 | 0.0647 | 0.0918 | 0.0564 | – | 0.054 | – | 0.0389 | 0.0689 | – | 0.0834
7 | S26M | 0.0657 | 0.0655 | 0.0526 | 0.0593 | 0.0651 | 0.0616 | 0.0634 | 0.061 | 0.0641 | 0.0568 | 0.0531 | 0.0608 | – | 0.0601 | 0.0465 | – | –
8 | T44V | 0.0551 | 0.046 | 0.0384 | 0.0514 | – | 0.0488 | 0.0518 | 0.057 | 0.0601 | 0.0548 | – | 0.062 | – | – | 0.0562 | – | 0.0675
9 | R87P | 0.0734 | – | – | – | 0.073 | – | – | – | 0.0656 | 0.039 | 0.0478 | – | – | – | 0.0536 | – | –
10 | M83P | 0.0371 | 0.0452 | – | – | – | – | 0.0465 | 0.0298 | 0.0612 | 0.0401 | – | 0.0422 | 0.0531 | 0.0577 | 0.0322 | – | –
11 | M83S | 0.0606 | 0.0442 | 0.0524 | 0.0307 | – | – | 0.067 | 0.0425 | 0.053 | 0.0738 | – | – | – | – | – | 0.0631 | 0.0579
12 | M83A | 0.0602 | 0.0571 | 0.0539 | 0.0411 | 0.0623 | 0.0546 | 0.0657 | 0.0711 | 0.0644 | 0.0596 | 0.0668 | 0.0666 | 0.0761 | 0.0662 | 0.0577 | 0.048 | –
13 | M83Q | 0.0481 | – | 0.0524 | 0.0617 | 0.0517 | – | 0.0454 | 0.0353 | 0.0612 | 0.0615 | – | 0.0482 | – | – | 0.0578 | – | 0.0409
14 | L33E | 0.0648 | 0.0715 | 0.0548 | 0.079 | – | – | 0.0619 | 0.0571 | – | 0.0555 | 0.0483 | 0.0401 | – | – | 0.0511 | 0.0568 | –
15 | D27Y | 0.0653 | 0.0637 | 0.0501 | – | – | 0.056 | 0.0653 | 0.0589 | 0.0597 | 0.0578 | 0.143 | 0.0649 | – | – | 0.0543 | – | –
16 | D27R | 0.0712 | 0.0632 | 0.048 | 0.0384 | – | – | 0.0425 | 0.0456 | – | 0.0574 | 0.0647 | – | – | – | – | – | –

Row | Variant | area with substrate DNLYFQS | area with substrate GNLYFQS | area with substrate HNLYFQS | area with substrate LNLYFQS | area with substrate MNLYFQS | area with substrate NNLYFQS | area with substrate PNLYFQS | area with substrate SNLYFQS | area with substrate TNLYFQS | area with substrate WNLYFQS | area with substrate YNLYFQS | area with substrate KNLYFQS | area with substrate QNLYFQS | area with substrate RNLYFQS | area with substrate INLYFQS | area with substrate VNLYFQS | area with substrate FNLYFQS
17 | C20Y | 0.0459 | – | 0.0433 | 0.0634 | – | 0.0427 | 0.0504 | – | 0.0616 | 0.06 | 0.0566 | 0.0619 | – | 0.0493 | – | – | 0.0527
18 | C20K | 0.0556 | 0.0763 | 0.0377 | 0.0479 | 0.0455 | 0.0451 | – | 0.047 | 0.0531 | 0.0502 | 0.0581 | 0.0402 | – | – | 0.055 | – | –
19 | T70M | 0.0763 | – | 0.0634 | – | – | 0.0663 | – | – | 0.0595 | 0.0674 | – | – | – | 0.0705 | 0.0693 | – | 0.0614
20 | L22F | 0.0652 | 0.0673 | 0.0571 | 0.0629 | 0.0716 | 0.053 | 0.0491 | – | 0.0618 | 0.0568 | 0.0554 | – | – | 0.0893 | – | 0.0595 | –
21 | G54D | 0.0593 | 0.0637 | 0.0634 | 0.0644 | 0.0689 | 0.0665 | 0.0622 | 0.064 | 0.0659 | – | 0.0373 | 0.0449 | – | 0.0663 | 0.0504 | 0.054 | 0.0601
22 | G35C | 0.0566 | 0.0523 | 0.0442 | 0.0559 | – | – | – | 0.0488 | 0.0702 | – | – | 0.044 | 0.0527 | – | – | – | –
23 | D69M | 0.014 | 0.0623 | 0.0567 | 0.0465 | 0.0633 | – | 0.0645 | – | 0.0606 | 0.0578 | – | – | – | – | 0.0357 | – | –
24 | G63V | 0.0679 | 0.0612 | 0.0602 | 0.0749 | – | 0.0615 | – | 0.0651 | 0.0609 | 0.07 | 0.051 | 0.0733 | 0.0542 | – | 0.0762 | – | 0.0556
25 | H76P | 0.0552 | 0.0527 | 0.0466 | 0.0516 | – | 0.0502 | 0.0594 | – | – | 0.0572 | – | 0.0511 | – | 0.0538 | – | – | –
26 | I86Y | 0.0565 | – | 0.0446 | – | 0.0649 | 0.0664 | 0.0083 | 0.0634 | – | 0.0575 | – | – | – | – | – | – | 0.0417
27 | V67Q | 0.0635 | – | 0.0504 | 0.0505 | – | – | 0.0544 | – | 0.0597 | 0.0663 | – | 0.065 | – | – | 0.0496 | – | 0.0627
28 | T55H | 0.0675 | – | 0.0557 | – | 0.0404 | – | – | – | 0.0511 | 0.0642 | 0.0739 | – | – | – | 0.0756 | 0.0834 | –
29 | T55K | 0.0859 | 0.0536 | 0.0711 | 0.0819 | 0.0649 | 0.0621 | 0.0713 | 0.0567 | 0.0744 | 0.0512 | 0.0644 | 0.0713 | 0.0598 | – | 0.0618 | – | 0.0662
30 | T31H | 0.082 | – | 0.0782 | 0.0642 | 0.0628 | – | – | 0.0497 | 0.0585 | 0.0661 | – | 0.0632 | – | – | – | – | –
31 | T31L | 0.068 | 0.0583 | – | 0.0728 | 0.0723 | 0.0592 | 0.0651 | 0.0686 | 0.0667 | 0.0651 | – | 0.0728 | 0.0744 | – | – | 0.0524 | 0.0786
32 | F65Y | 0.0904 | 0.0741 | 0.0582 | – | – | – | 0.0652 | 0.0677 | 0.0677 | 0.0759 | 0.0518 | – | – | – | – | – | 0.0705
